# Reference: publication PMC4336329 (PLoS ONE, 2015)
# Screen size: about 310,000 compounds; about 14,000 (4.5%) showed an effect of 50% or more. The effect is printed as a negative number. This is one part of the list.
# Target: human ether-à-go-go-related gene (hERG) potassium channel (human, UniProt Q12809)
# Assay: primary screen, population patch clamp on CHO cells stably expressing hERG
# 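Note: peak tail current of the secondary pulse compared with the same well before compound.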
# human ether-à-go-go-related gene (hERG) potassium channel, sequence (Q12809 whole entry, looked up): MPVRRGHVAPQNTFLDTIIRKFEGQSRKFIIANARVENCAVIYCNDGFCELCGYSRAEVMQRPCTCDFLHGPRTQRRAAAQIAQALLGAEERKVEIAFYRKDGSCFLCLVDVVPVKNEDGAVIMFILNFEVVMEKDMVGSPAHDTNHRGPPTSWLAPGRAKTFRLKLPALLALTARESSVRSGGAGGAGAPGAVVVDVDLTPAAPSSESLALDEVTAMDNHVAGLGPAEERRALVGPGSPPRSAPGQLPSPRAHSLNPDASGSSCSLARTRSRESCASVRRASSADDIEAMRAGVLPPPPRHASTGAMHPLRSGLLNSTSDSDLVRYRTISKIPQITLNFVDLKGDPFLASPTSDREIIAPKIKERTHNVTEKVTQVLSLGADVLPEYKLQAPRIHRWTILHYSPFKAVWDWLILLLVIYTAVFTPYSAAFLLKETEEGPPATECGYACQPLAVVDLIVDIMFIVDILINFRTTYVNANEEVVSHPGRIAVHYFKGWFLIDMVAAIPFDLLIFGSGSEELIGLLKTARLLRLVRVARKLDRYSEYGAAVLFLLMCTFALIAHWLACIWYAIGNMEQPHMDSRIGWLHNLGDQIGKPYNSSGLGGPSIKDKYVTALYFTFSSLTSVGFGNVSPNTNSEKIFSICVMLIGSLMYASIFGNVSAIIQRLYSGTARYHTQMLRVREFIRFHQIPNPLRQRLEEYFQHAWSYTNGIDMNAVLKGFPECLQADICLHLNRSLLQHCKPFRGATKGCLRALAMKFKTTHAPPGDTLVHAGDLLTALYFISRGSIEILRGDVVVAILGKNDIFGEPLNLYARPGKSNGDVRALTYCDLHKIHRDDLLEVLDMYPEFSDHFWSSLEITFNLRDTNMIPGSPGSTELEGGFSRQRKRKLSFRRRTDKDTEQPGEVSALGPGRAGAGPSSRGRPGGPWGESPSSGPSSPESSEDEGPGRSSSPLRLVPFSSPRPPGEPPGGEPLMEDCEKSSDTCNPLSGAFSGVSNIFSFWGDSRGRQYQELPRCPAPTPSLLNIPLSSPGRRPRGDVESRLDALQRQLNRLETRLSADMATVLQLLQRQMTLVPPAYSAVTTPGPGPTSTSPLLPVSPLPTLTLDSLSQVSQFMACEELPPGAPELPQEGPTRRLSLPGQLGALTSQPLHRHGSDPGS
row,SMILES,"hERG current change (%, negative = inhibition) at 10uM [%]"
1,COc1ccccc1C(=O)NCCC(=O)NCC(c1ccco1)N1CCCCC1 (stereo not shown),3.37
2,CCC1CCC(N2CCN(c3ccccc3F)CC2)CC1 (stereo not shown),-22.2
3,Cc1cc(C)n(-c2nnc(Cl)c3ccccc23)n1,24.2
4,CN(C(=O)COC(=O)c1ccccc1C(=O)N(C)c1ccccc1)c1ccccc1,-8.82
5,CCO[C@@H]1OC(C(=O)N2CCN(Cc3ccccc3)CC2)=C[C@H](c2cn(C(C)=O)c3ccccc23)[C@H]1CCCO,-37.9
6,N#C[C@H]1C(O)C(O)c2ccccc2N1C(=O)c1ccccc1 (stereo partly shown),7.24
7,CCCCNC(=O)C1CC(=O)N(CCC(C)C)C1 (stereo not shown),9.55
8,COc1cccc(NC(=O)CSC2=C(C#N)C(c3ccco3)C3=C(CCCC3=O)N2)c1 (stereo not shown),-11.9
9,CS(=O)(=O)c1ccc(SCC(=O)NC2CCS(=O)(=O)C2)c([N+](=O)[O-])c1 (stereo not shown),-6.31
10,COc1ccc(CCNC(=O)COc2nsnc2N2CCOCC2)cc1OC,-11.5
11,Cc1cc(=O)oc2cc(OCC(=O)Nc3ccc(CN4CCOCC4)cc3)c(Cl)cc12,2.5
12,COc1ccc(Cl)cc1S(=O)(=O)N1CCC(C(=O)NC2CCCC2)CC1,-21.2
13,Cc1ccc(S(=O)(=O)N(CC(=O)NCc2ccc(F)cc2)C(=O)N2CCN(C)CC2)cc1,7.49
14,O=C(Nc1cccc(C(=O)O)c1)/C(=C\c1ccccc1)NC(=O)c1ccccc1,0.645
15,O=C(CN1CCC(c2nc3ccccc3[nH]2)CC1)Nc1ccc2c(c1)OCO2,-53.1
16,O=C(NC1CCCCC1)C1CC(=O)N(c2ccc(Cl)cc2)C1 (stereo not shown),1.89
17,Cc1c(C(=O)NCCN2CCOCC2)oc2ccc(S(=O)(=O)N3CCCCCC3)cc12,-17
18,COc1ccc(-c2cc(C#N)nc(N3CCN(C)CC3)n2)cc1,-42.5
19,O=C(NC1CCCC1)C(c1cccs1)N(C(=O)c1csnn1)c1ccccc1F (stereo not shown),9.21
20,O=C(CCn1nnc2ccccc2c1=O)N[C@H](C(=O)O)c1ccccc1,8.7
21,O=C(C1CCN(S(=O)(=O)c2ccccc2)CC1)N(CCc1ccccc1)Cc1ccco1,-18.9
22,Cc1cnn(CCC(=O)NNC(=S)NCC(C)C)c1,-8.49

row,SMILES,"hERG current change (%, negative = inhibition) at 10uM [%]"
1,Cc1ccc(C(=O)Nc2nc3ccccc3n2CCN2CCCC2)cc1,-53.8
2,COc1ccc(CNC(=O)C(=O)NCC2OCCN2S(=O)(=O)c2ccc3c(c2)OCCO3)cc1 (stereo not shown),-3.01
3,COc1ccccc1NC(=O)C(=O)NCCC1CCCCN1S(=O)(=O)c1cccs1 (stereo not shown),4.76
4,COc1ccc(CN(C)C(C)C(=O)NC2CCCc3ccccc32)cc1 (stereo not shown),-29.2
5,CCN(C(=O)COC(=O)c1cc(S(=O)(=O)N(C)C)ccc1Cl)C1CCS(=O)(=O)C1 (stereo not shown),2.92
6,CCN(c1ccccc1)S(=O)(=O)c1ccc(Cl)c(NC(=O)CSc2nncs2)c1,-24.2
7,CN(C(=O)COC(=O)c1ccc(=O)n(Cc2ccccc2)n1)c1ccccc1,-5.17
8,CC(C)CSc1nc2ccccc2c(=O)[nH]1,3.93
9,COc1ccc(NC(=O)CSc2nnc(Cc3cccn3C)n2-c2ccc(OC)cc2)cc1,-21.2
10,O=C(Cc1ncc(C(F)(F)F)cc1Cl)NCCc1ccccn1,12.3
11,O=C1CC(c2ccccc2)CC(=O)C1=CN1CCCC1 (stereo not shown),14.2
12,CCOC(=O)c1cccc(NS(=O)(=O)c2ccc(NC(C)=O)cc2)c1,-11.7
13,Cc1nc(NCCO)c(C#N)c2c1COC(C)(C)C2,-4.18
14,CCSc1nnc(Nc2ccccc2)s1,-2.04
15,Cc1ccc(C)c(NC(=O)COC(=O)c2ccc3ccccc3n2)c1,-9.7
16,COc1ccc(C(=O)OCC(=O)c2ccc[nH]2)cc1,-4.92
17,Cc1nc2sc(C(c3ccc(Cl)cc3)N3CC(C)OC(C)C3)c(O)n2n1 (stereo not shown),2.69
18,CCCCN(C)C(=S)Nc1ccsc1C(=O)OC,-5.36
19,O=C(CCc1c[nH]c2ccccc12)NCCOc1ccccc1,-20.3
20,CC(C)CNC(=O)c1ccccc1NC(=O)CN(c1ccccc1)S(=O)(=O)N(C)C,5.98
21,CC(=O)NC(CCS(C)(=O)=O)C(=O)Nc1cc(C)ccc1C (stereo not shown),1.16
